From the supplement of paper PMC8728848
Some of the results follow.

What was measured:
Test in all cases: glycan array binding signal (z-score within array); higher = stronger binding
Settings in all cases: glycan notation: IUPAC condensed, linker removed
[1] = target: Man(a1-3)[Man(a1-6)]Man(a1-6)[Man(a1-2)Man(a1-3)]Man(b1-4)GlcNAc(b1-4)GlcNAc
Summary of the method: (§1)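 The binding signal is a Z-score computed within each array. Data were drawn from 3228 arrays in the Consortium for Functional Glycomics database, restricted to those with a known protein sequence. Scores were averaged over arrays of the same protein sequence at different concentrations or buffers, and over linkers, and negative values can be taken as non-binding.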

[2] = target: Man(a1-3)[Man(a1-6)]Man(a1-6)[Man(a1-3)]Man
Summary of the method: as §1

[3] = target: Man(a1-3)[Man(a1-6)]Man(a1-6)[Man(a1-3)]Man(b1-4)GlcNAc(b1-4)GlcNAc
Summary of the method: as §1

[4] = target: Man(a1-3)[Man(a1-6)]Man(b1-4)GlcNAc(b1-4)GlcNAc
Summary of the method: as §1

Man(a1-6)Man = target: Man(a1-6)Man
Summary of the method: as §1

Man(b1-4)GlcNAc = target: Man(b1-4)GlcNAc
Summary of the method: as §1

Neu5Ac(a2-3)Gal = target: Neu5Ac(a2-3)Gal
Summary of the method: as §1

[5] = target: Neu5Ac(a2-3)Gal(b1-3)GalNAc
Summary of the method: as §1

[6] = target: Neu5Ac(a2-3)Gal(b1-3)GalNAc(b1-3)Gal(a1-4)Gal(b1-4)Glc
Summary of the method: as §1

[7] = target: Neu5Ac(a2-3)Gal(b1-3)GalNAc(b1-3)Gal(b1-4)GlcNAc
Summary of the method: as §1

[8] = target: Neu5Ac(a2-3)Gal(b1-3)GalNAc(b1-4)[Neu5Ac(a2-3)]Gal(b1-4)Glc
Summary of the method: as §1

[9] = target: Neu5Ac(a2-3)Gal(b1-3)GalNAc6S
Summary of the method: as §1

[10] = target: Neu5Ac(a2-3)Gal(b1-3)GlcNAc
Summary of the method: as §1

[11] = target: Neu5Ac(a2-3)Gal(b1-3)GlcNAc(b1-3)Gal(b1-3)GlcNAc
Summary of the method: as §1

[12] = target: Neu5Ac(a2-3)Gal(b1-3)GlcNAc6S
Summary of the method: as §1

[13] = target: Neu5Ac(a2-3)Gal(b1-3)[Fuc(a1-4)]GlcNAc
Summary of the method: as §1

[14] = target: Neu5Ac(a2-3)Gal(b1-3)[Fuc(a1-4)]GlcNAc(b1-3)Gal(b1-4)[Fuc(a1-3)]GlcNAc
Summary of the method: as §1

[15] = target: Neu5Ac(a2-3)Gal(b1-3)[Neu5Ac(a2-3)Gal(b1-4)]GlcNAc
Summary of the method: as §1

[16] = target: Neu5Ac(a2-3)Gal(b1-3)[Neu5Ac(a2-6)]GalNAc
Summary of the method: as §1

Neu5Ac(a2-3)Gal(b1-4)Glc = target: Neu5Ac(a2-3)Gal(b1-4)Glc
Summary of the method: as §1

[17] = target: Neu5Ac(a2-3)Gal(b1-4)GlcNAc
Summary of the method: as §1

[18] = target: Neu5Ac(a2-3)Gal(b1-4)GlcNAc(b1-2)Man(a1-3)[GlcNAc(b1-2)Man(b1-4)GlcNAc(b1-2)Man(a1-6)]Man(b1-4)GlcNAc(b1-4)GlcNAc
Summary of the method: as §1

[19] = target: Neu5Ac(a2-3)Gal(b1-4)GlcNAc(b1-2)Man(a1-3)[Neu5Ac(a2-6)Gal(b1-4)GlcNAc(b1-2)Man(a1-6)]Man(b1-4)GlcNAc(b1-4)GlcNAc
Summary of the method: as §1

[20] = target: Neu5Ac(a2-3)Gal(b1-4)GlcNAc(b1-3)Gal(b1-3)GlcNAc
Summary of the method: as §1

[21] = target: Neu5Ac(a2-3)Gal(b1-4)GlcNAc(b1-3)Gal(b1-4)GlcNAc
Summary of the method: as §1

[22] = target: Neu5Ac(a2-3)Gal(b1-4)GlcNAc(b1-3)Gal(b1-4)GlcNAc(b1-3)Gal(b1-4)GlcNAc
Summary of the method: as §1

[23] = target: Neu5Ac(a2-3)Gal(b1-4)GlcNAc(b1-3)Gal(b1-4)[Fuc(a1-3)]GlcNAc
Summary of the method: as §1

[24] = target: Neu5Ac(a2-3)Gal(b1-4)GlcNAc(b1-6)[Gal(b1-3)]GalNAc
Summary of the method: as §1

[25] = target: Neu5Ac(a2-3)Gal(b1-4)GlcNAc(b1-6)[Neu5Ac(a2-3)Gal(b1-3)]GalNAc
Summary of the method: as §1

[26] = target: Neu5Ac(a2-3)Gal(b1-4)GlcNAc6S
Summary of the method: as §1

[27] = target: Neu5Ac(a2-3)Gal(b1-4)[Fuc(a1-3)]GlcNAc
Summary of the method: as §1

[28] = target: Neu5Ac(a2-3)Gal(b1-4)[Fuc(a1-3)]GlcNAc(b1-3)Gal
Summary of the method: as §1

[29] = target: Neu5Ac(a2-3)Gal(b1-4)[Fuc(a1-3)]GlcNAc(b1-3)Gal(b1-4)GlcNAc
Summary of the method: as §1

[30] = target: Neu5Ac(a2-3)Gal(b1-4)[Fuc(a1-3)]GlcNAc(b1-3)Gal(b1-4)[Fuc(a1-3)]GlcNAc(b1-3)Gal(b1-4)[Fuc(a1-3)]GlcNAc
Summary of the method: as §1

[31] = target: Neu5Ac(a2-3)Gal(b1-4)[Fuc(a1-3)]GlcNAc(b1-6)[Gal(b1-3)]GalNAc
Summary of the method: as §1

[32] = target: Neu5Ac(a2-3)Gal(b1-4)[Fuc(a1-3)]GlcNAc6S
Summary of the method: as §1

[33] = target: Neu5Ac(a2-3)Gal6S(b1-4)GlcNAc
Summary of the method: as §1

B1: BDCA2 ex-domain (Homo sapiens) (protein)
chain: MASHHHHHHIEGRGLNDIFEAQKIEWHESLVPRGSCPTPWTSFQSSCYFISTGMQSWTKSQKNCSVMGADLVVINTREEQDFIIQNLKRNSSYFLGLSDPGGRRHWQWVDQTPYNENVTFWHSGEPNNLDERCAIINFRSSEEWGWNDIHCHVPQKSICKMKKIY
glycan array binding signal (z-score) [1]: 0.3
glycan array binding signal (z-score) [2]: -0.134
glycan array binding signal (z-score) [3]: 0.206
glycan array binding signal (z-score) [4]: -0.15
glycan array binding signal (z-score) (Man(a1-6)Man): 0.887
glycan array binding signal (z-score) (Man(b1-4)GlcNAc): 0.076
glycan array binding signal (z-score) (Neu5Ac(a2-3)Gal): -0.249
glycan array binding signal (z-score) [5]: 0.865
glycan array binding signal (z-score) [6]: -0.195
glycan array binding signal (z-score) [7]: 0.751
glycan array binding signal (z-score) [8]: 0.273
glycan array binding signal (z-score) [9]: -0.02
glycan array binding signal (z-score) [10]: -0.015
glycan array binding signal (z-score) [11]: -0.143
glycan array binding signal (z-score) [12]: 0.425
glycan array binding signal (z-score) [13]: -0.168
glycan array binding signal (z-score) [14]: -0.43
glycan array binding signal (z-score) [15]: -0.211
glycan array binding signal (z-score) [16]: -0.2
glycan array binding signal (z-score) (Neu5Ac(a2-3)Gal(b1-4)Glc): -0.087
glycan array binding signal (z-score) [17]: 0.347
glycan array binding signal (z-score) [18]: -0.196
glycan array binding signal (z-score) [19]: -0.273
glycan array binding signal (z-score) [20]: -0.251
glycan array binding signal (z-score) [21]: 1
glycan array binding signal (z-score) [22]: 1.33
glycan array binding signal (z-score) [23]: 0.601
glycan array binding signal (z-score) [24]: -0.007
glycan array binding signal (z-score) [25]: -0.227
glycan array binding signal (z-score) [26]: -1.32
glycan array binding signal (z-score) [27]: -0.385
glycan array binding signal (z-score) [28]: -0.38
glycan array binding signal (z-score) [29]: -0.31
glycan array binding signal (z-score) [30]: 0.449
glycan array binding signal (z-score) [31]: -0.218
glycan array binding signal (z-score) [32]: -0.213
glycan array binding signal (z-score) [33]: -0.077
